The target in the test is GTPase KRas (Homo sapiens) (UniProt P01116). In words: Covalent labelling of cysteine mutants by fragments, read by mass spectrometry (AID 2202238). Also noted: protein at 5 µM with 500 µM competing thiol for 1.5 h. Particulars: KRAS G12D cysteine mutants, disulfide tethering, MALDI-TOF labeling, stronger effect = higher value, fragment at 500 µM.
Where [1] appears, read: measured here: G60C mutant labeling.
Where [2] appears, read: measured here: G75C mutant labeling.
[3] abbreviates: measured here: H94C mutant labeling.
[4] abbreviates: measured here: I36C mutant labeling.
Where [5] appears, read: measured here: L120C mutant labeling.
[6] abbreviates: measured here: M67C mutant labeling.
Where [7] appears, read: measured here: M72C mutant labeling.
[8] abbreviates: measured here: N26C mutant labeling.
[9] abbreviates: measured here: N86C mutant labeling.
Where [10] appears, read: measured here: P121C mutant labeling.
[11] abbreviates: measured here: S122C mutant labeling.
Where [12] appears, read: measured here: S136C mutant labeling.

Each structure is given as a SMILES string. This is one part of the list. The main result of the screen is listed elsewhere. These columns were measured beside it and carry no call.

Chain of UniProt P01116 (P01116 whole entry, looked up, the tested form may be a part): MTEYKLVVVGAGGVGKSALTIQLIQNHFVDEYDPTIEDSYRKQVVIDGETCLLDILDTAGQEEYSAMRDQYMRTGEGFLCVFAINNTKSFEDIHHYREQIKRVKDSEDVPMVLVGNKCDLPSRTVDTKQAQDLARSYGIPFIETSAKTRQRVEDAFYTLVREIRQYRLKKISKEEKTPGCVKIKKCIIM

On to `Cc1ccc(-c2nc(C(=O)NCCS)cs2)n1C`, for which the percent labeling amounted to 15.4% under setting [1]; 7.5% under setting [2]; 15.2% under setting [3]; 8.6% under setting [4]; 15.5% under setting [5]; 9.6% under setting [6]. Besides, the percent labeling runs as follows: under setting [7], 14%; under setting [8], 16.3%; under setting [9], 6.7%; under setting [10], 12.1%; under setting [11], 8.8%; under setting [12], 13.8%.
For `CCN(CC1CCC(C(=O)OC)CC1)C(=O)CCS` (centres undefined), the percent labeling reads like this: under setting [2], 12.5%; under setting [3], 40.9%; under setting [4], 32.8%; under setting [5], 35.8%; under setting [6], 38.8%; under setting [7], 30%. Besides, the percent labeling reads like this: under setting [9], 49.4%; under setting [10], 33.7%; under setting [11], 34.1%; under setting [12], 58.6%.
Take `Nc1ncnc2c1ncn2CCC(=O)NCCS`: the percent labeling was found to be 23.4% under setting [1]; 7.3% under setting [2]; 11.4% under setting [3]; 21.1% under setting [4]; 22.1% under setting [5]; 15.1% under setting [6]. Also, the percent labeling reads like this: under setting [7], 9%; under setting [8], 23.4%; under setting [9], 9.1%; under setting [10], 23.4%; under setting [11], 12.6%; under setting [12], 22.9%.
In turn, `O=C(CCS)NC1Cc2cc(Br)cnc2NC1=O` (centres undefined) gave a percent labeling under setting [2] of 11.6%; a percent labeling under setting [3] of 25.9%; a percent labeling under setting [4] of 41.9%; a percent labeling under setting [5] of 30.6%; a percent labeling under setting [6] of 31.7%; a percent labeling under setting [7] of 29.6%. For the same molecule, the percent labeling under setting [9] amounted to 19%, the percent labeling under setting [10] came out at 30%, the percent labeling under setting [11] was found to be 24.9% and the percent labeling under setting [12] was found to be 47.3%.
Turning to `CC(C)Oc1cc(CN(C(=O)CCS)C2CC2)ccn1`, the percent labeling stood at 23.4% under setting [2]; 41.4% under setting [3]; 36.7% under setting [4]; 31.3% under setting [5]; 59.1% under setting [6]; 39.1% under setting [7]. Further, the percent labeling runs as follows: under setting [9], 28.4%; under setting [10], 32.1%; under setting [11], 33.1%; under setting [12], 55.4%.
For `Cc1cc(=O)[nH]c2cc(C(=O)NCCS)ccc12`, the percent labeling by setting is: under setting [1], 8%; under setting [2], 5.2%; under setting [3], 7.1%; under setting [4], 6.8%; under setting [5], 0%; under setting [6], 6.3%. Also, the percent labeling came out at 25.1% under setting [7]; 23.2% under setting [8]; 0% under setting [9]; 0% under setting [10]; 4% under setting [11]; 13.4% under setting [12].
Consider `O=C(NCCS)c1cc2ccccc2cc1O`, for which the percent labeling is, setting by setting: under setting [1], 21.8%; under setting [2], 20.9%; under setting [3], 9.2%; under setting [4], 9.5%; under setting [5], 9.2%; under setting [6], 10.2%. In addition, the percent labeling by setting is: under setting [7], 40.4%; under setting [8], 30%; under setting [9], 7.8%; under setting [10], 15.7%; under setting [11], 8.1%; under setting [12], 17.2%.
Take `Cn1c(-c2ccccc2)c(C(=O)NCCS)c2ccccc21`: the percent labeling is, setting by setting: under setting [1], 45.9%; under setting [2], 19%; under setting [3], 50.8%; under setting [4], 11.1%; under setting [5], 16.4%; under setting [6], 19.5%. The same molecule displayed a percent labeling under setting [7] of 41.1%; a percent labeling under setting [8] of 33.4%; a percent labeling under setting [9] of 16%; a percent labeling under setting [10] of 15.6%; a percent labeling under setting [11] of 10.7%; a percent labeling under setting [12] of 25%.
As to `O=C(NCCS)C1CC(O)CN1C(=O)Cc1ccccc1F` (centres undefined), the percent labeling came to 27.7% under setting [1]; 10% under setting [2]; 30% under setting [3]; 20.6% under setting [4]; 37.7% under setting [5]; 41.1% under setting [6]. The percent labeling runs as follows: under setting [7], 11.3%; under setting [8], 30.4%; under setting [9], 22.2%; under setting [10], 30.2%; under setting [11], 25.9%; under setting [12], 34.2%.
The molecule `CC(C)(C)OC(=O)NC1CCC2(CC1)CN(C(=O)CCS)CCO2` (centres undefined) displayed a percent labeling under setting [2] of 8.5%; a percent labeling under setting [3] of 25.5%; a percent labeling under setting [4] of 27.1%; a percent labeling under setting [5] of 17.2%; a percent labeling under setting [6] of 27.6%; a percent labeling under setting [7] of 16.3%. The percent labeling stood at 17% under setting [9], 25.3% under setting [10], 23% under setting [11] and 44.3% under setting [12].
As to `Cc1ccc(S(=O)(=O)C2CCN(C(=O)CCS)CC2)cc1`, the percent labeling was 15.9% under setting [2]; 28.1% under setting [3]; 36.6% under setting [4]; 26.2% under setting [5]; 40% under setting [6]; 28.2% under setting [7]. Besides, the percent labeling reads like this: under setting [9], 22.1%; under setting [10], 24.8%; under setting [11], 26.7%; under setting [12], 52.2%.
On to `O=C(CCS)NC1CCN(CC(=O)N2CCOCC2)CC1`, for which the percent labeling stood at 0% under setting [2]; 9.6% under setting [3]; 20.7% under setting [4]; 11.5% under setting [5]; 21.9% under setting [6]; 3.6% under setting [7]. This molecule also came in with a percent labeling under setting [9] of 4%, a percent labeling under setting [10] of 14.9%, a percent labeling under setting [11] of 13.5% and a percent labeling under setting [12] of 22.4%.
On to `Cc1cc(=O)n(CCNC(=O)CCS)cn1`, for which the percent labeling came to 24.5% under setting [2]; 24.9% under setting [3]; 38.8% under setting [4]; 25.1% under setting [5]; 34.1% under setting [6]; 12.9% under setting [7]. Further, the percent labeling by setting is: under setting [9], 29.7%; under setting [10], 39.5%; under setting [11], 40.4%; under setting [12], 48.4%.
Consider `O=C(COc1ccc2c3c(c(=O)oc2c1)CCC3)NCCS`, for which the percent labeling by setting is: under setting [1], 27.3%; under setting [2], 11.9%; under setting [3], 11.5%; under setting [4], 9.5%; under setting [5], 11.7%; under setting [6], 7.8%. Moreover, the percent labeling runs as follows: under setting [7], 33.5%; under setting [8], 21.7%; under setting [9], 12.5%; under setting [10], 13.7%; under setting [11], 0%; under setting [12], 9.6%.
As to `Cc1cc(C2(NC(=O)CCS)CCOCC2)on1`, the percent labeling under setting [2] came out at 7.7%; the percent labeling under setting [3] stood at 27.3%; the percent labeling under setting [4] is 38.9%; the percent labeling under setting [5] was determined as 32.2%; the percent labeling under setting [6] turned out to be 32.9%; the percent labeling under setting [7] is 11.7%. Further, the percent labeling reads like this: under setting [9], 16%; under setting [10], 37%; under setting [11], 31%; under setting [12], 51%.

The record behind these values is PubChem BioAssay AID2202238 (Ras Initiative Chemistry Research Team, Frederick National …, 2025).
